Laboratory results published in the supplement of paper PMC8728848.
The list shows a part of the results.

Legend:
Experiment in all cases: glycan array binding signal (z-score within array); higher = stronger binding
Settings in all cases: glycan notation: IUPAC condensed, linker removed
[1] = target: Fuc(a1-3)[Gal(b1-4)]GlcNAc(b1-4)Gal(b1-4)[Fuc(a1-3)]GlcNAc(b1-4)Gal(b1-4)[Fuc(a1-3)]GlcNAc
How it was run: (§1)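 The Consortium for Functional Glycomics database supplied 3228 glycan arrays, of which those lacking an available protein sequence were dropped. The binding signal, a within-array Z-score, was averaged across arrays of the same protein sequence and across linkers. Negative scores can be read as non-binding.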

[2] = target: Fuc(a1-3)[Gal3S(b1-4)]GlcNAc
How it was run: as §1

[3] = target: Fuc(a1-3)[GalNAc(b1-4)]Gal(b1-4)GlcNAc
How it was run: as §1

[4] = target: Fuc(a1-4)GlcNAc
How it was run: as §1

[5] = target: Fuc(b1-3)GlcNAc
How it was run: as §1

[6] = target: Gal(a1-2)Gal
How it was run: as §1

[7] = target: Gal(a1-3)Gal
How it was run: as §1

[8] = target: Gal(a1-3)Gal(b1-3)Glc
How it was run: as §1

[9] = target: Gal(a1-3)Gal(b1-3)GlcNAc
How it was run: as §1

[10] = target: Gal(a1-3)Gal(b1-4)GlcNAc
How it was run: as §1

[11] = target: Gal(a1-3)Gal(b1-4)[Fuc(a1-3)]GalNAc
How it was run: as §1

[12] = target: Gal(a1-3)GlcNAc
How it was run: as §1

[13] = target: Gal(a1-3)[Gal(a1-4)]Gal(b1-4)GlcNAc
How it was run: as §1

[14] = target: Gal(a1-4)Gal(b1-4)Gal
How it was run: as §1

[15] = target: Gal(a1-4)Gal(b1-4)GalNAc
How it was run: as §1

[16] = target: Gal(a1-4)GlcNAc
How it was run: as §1

[17] = target: Gal(a1-6)Glc
How it was run: as §1

[18] = target: Gal(b1-2)Gal
How it was run: as §1

[19] = target: Gal(b1-3)Gal
How it was run: as §1

[20] = target: Gal(b1-3)GalNAc
How it was run: as §1

[21] = target: Gal(b1-3)GalNAc(b1-3)Gal(a1-4)Gal(b1-4)Glc
How it was run: as §1

[22] = target: Gal(b1-3)GalNAc(b1-3)Gal(b1-4)Glc
How it was run: as §1

[23] = target: Gal(b1-3)GalNAc(b1-3)Gal(b1-4)GlcNAc
How it was run: as §1

[24] = target: Gal(b1-3)GalNAc(b1-4)Gal(b1-4)Glc
How it was run: as §1

[25] = target: Gal(b1-3)GalNAc(b1-4)[Neu5Ac(a2-3)]Gal(b1-4)Glc
How it was run: as §1

[26] = target: Gal(b1-3)[Fuc(a1-4)]GlcNAc
How it was run: as §1

[27] = target: Gal(b1-3)[Fuc(a1-4)]GlcNAc(b1-3)Gal(b1-4)GlcNAc
How it was run: as §1

[28] = target: Gal(b1-3)[Fuc(a1-4)]GlcNAc(b1-3)Gal(b1-4)[Fuc(a1-3)]GlcNAc
How it was run: as §1

[29] = target: Gal(b1-3)[GlcNAc(b1-6)]GalNAc
How it was run: as §1

[30] = target: Gal(b1-3)[GlcNAc(b1-6)]GlcNAc
How it was run: as §1

[31] = target: Gal(b1-3)[Neu5Ac(a2-6)]GalNAc
How it was run: as §1

[32] = target: Gal(b1-3)[Neu5Ac(a2-6)]GlcNAc
How it was run: as §1

[33] = target: Gal(b1-3)[Neu5Ac(a2-6)]GlcNAc(a1-4)Gal(b1-4)Glc
How it was run: as §1

[34] = target: Gal(b1-3)[Neu5Ac(b2-6)]GlcNAc
How it was run: as §1

[35] = target: Gal(b1-4)GalNAc(a1-3)[Fuc(a1-2)]Gal(b1-4)GlcNAc
How it was run: as §1

[36] = target: Gal(b1-4)GalNAc(b1-3)[Fuc(a1-2)]Gal(b1-4)GlcNAc
How it was run: as §1

[37] = target: Gal(b1-4)Glc
How it was run: as §1

[38] = target: Gal(b1-4)Glc6S
How it was run: as §1

[39] = target: Gal(b1-4)GlcNAc
How it was run: as §1

B1: HMGB1 (Rattus norvegicus), P63159 (protein)
chain: MGKGDPKKPRGKMSSYAFFVQTCREEHKKKHPDASVNFSEFSKKCSERWKTMSAKEKGKFEDMAKADKARYEREMKTYIPPKGETKKKFKDPNAPKRPPSAFFLFCSEYRPKIKGEHPGLSIGDVAKKLGEMWNNTAADDKQPYEKKAAKLKEKYEKDIAAYRAKGKPDAAKKGVVKAEKSKKKKEEEDDEEDEEDEEEEEEEEDEDEEEDDDDE
glycan array binding signal (z-score) [1]: -0.049
glycan array binding signal (z-score) [2]: -0.636
glycan array binding signal (z-score) [3]: -0.63
glycan array binding signal (z-score) [4]: -0.088
glycan array binding signal (z-score) [5]: -0.654
glycan array binding signal (z-score) [6]: -0.374
glycan array binding signal (z-score) [7]: -0.356
glycan array binding signal (z-score) [8]: -0.433
glycan array binding signal (z-score) [9]: -0.625
glycan array binding signal (z-score) [10]: -0.184
glycan array binding signal (z-score) [11]: 0.108
glycan array binding signal (z-score) [12]: -0.253
glycan array binding signal (z-score) [13]: -0.404
glycan array binding signal (z-score) [14]: -0.012
glycan array binding signal (z-score) [15]: -0.457
glycan array binding signal (z-score) [16]: -0.082
glycan array binding signal (z-score) [17]: -0.488
glycan array binding signal (z-score) [18]: -0.433
glycan array binding signal (z-score) [19]: -0.292
glycan array binding signal (z-score) [20]: -0.393
glycan array binding signal (z-score) [21]: -0.447
glycan array binding signal (z-score) [22]: 0.641
glycan array binding signal (z-score) [23]: -0.406
glycan array binding signal (z-score) [24]: -0.082
glycan array binding signal (z-score) [25]: -0.193
glycan array binding signal (z-score) [26]: -0.265
glycan array binding signal (z-score) [27]: -0.004
glycan array binding signal (z-score) [28]: -0.599
glycan array binding signal (z-score) [29]: -0.335
glycan array binding signal (z-score) [30]: -0.685
glycan array binding signal (z-score) [31]: -0.379
glycan array binding signal (z-score) [32]: -0.352
glycan array binding signal (z-score) [33]: 0.108
glycan array binding signal (z-score) [34]: -0.219
glycan array binding signal (z-score) [35]: 0.027
glycan array binding signal (z-score) [36]: -0.322
glycan array binding signal (z-score) [37]: -0.487
glycan array binding signal (z-score) [38]: 0.01
glycan array binding signal (z-score) [39]: -0.621
